Here are results for 15 molecules from the supplement of paper PMC4604168 (melanoma cell lines).

Some of the results follow. Most values come without repeats; read them as rough.
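Further: cell number obtained by counting DAPI-stained nuclei in high-throughput microscope images with image analysis software, screen run in 1,536-well plates.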

The test has as its system WM115. In words: cell count relative to DMSO control; melanoma cells; higher = more viable cells. To be noted: library dose: low library concentration; 72 h.
Consider `O=C1NC(=O)/C(=C/c2ccc(-c3ccc(F)cc3O)o2)S1` + O=C(Oc1ccc([N+](=O)[O-])cc1)N1CCC(C(O)(c2ccc3c(c2)OCO3)c2ccc3c(c2)OCO3)CC1 [JZL184] (first compound 1 µM, partner dose 1 µM), for which the cell count stood at 102%.
On to `O=C(O)c1ccc2c(c1)nc(Nc1cccc(Cl)c1)c1ccncc12` + C[As](C)SC[C@H](NC(=O)CC[C@H](N)C(=O)O)C(=O)NCC(=O)O [Darinaparsin] (first compound 0.4 µM, partner dose 0.4 µM), for which the cell count was found to be 98.9%.
For `CN1CCN(c2ccc3nc(-c4c(N)c5c(F)cccc5[nH]c4=O)[nH]c3c2)CC1` [Dovitinib] + C/C(O)=C(\C#N)C(=O)Nc1cc(Br)ccc1Br [LFM-A13] (first compound 0.1 µM, partner dose 2 µM), the cell count is 101%.
Consider `O=C(O)c1ccc2c(c1)nc(Nc1cccc(Cl)c1)c1ccncc12` + Cc1cc(SCc2sc(-c3ccc(C(F)(F)F)c(F)c3)nc2C)ccc1OCC(=O)O [GW0742] (first compound 0.4 µM, partner dose 2 µM), for which the cell count stood at 120%.
Regarding `CN1CCN(c2ccc3nc(-c4c(N)c5c(F)cccc5[nH]c4=O)[nH]c3c2)CC1` [Dovitinib] + C[As](C)SC[C@H](NC(=O)CC[C@H](N)C(=O)O)C(=O)NCC(=O)O [Darinaparsin] (first compound 0.1 µM, partner dose 0.4 µM), the cell count was 88.7%.
With `Cc1cc(Nc2cc(N3CCN(C)CC3)nc(Sc3ccc(NC(=O)C4CC4)cc3)n2)n[nH]1` [Tozasertib] + N.N.[Cl][Pt][Cl] [cisplatin] (first compound 0.006 µM, partner dose 1.6 µM), the cell count amounted to 85.9%.
In turn, `CN1CCN(c2ccc3nc(-c4c(N)c5c(F)cccc5[nH]c4=O)[nH]c3c2)CC1` [Dovitinib] + O=C(Oc1ccc([N+](=O)[O-])cc1)N1CCC(C(O)(c2ccc3c(c2)OCO3)c2ccc3c(c2)OCO3)CC1 [JZL184] (first compound 0.1 µM, partner dose 1 µM) had a cell count of 87.7%.
For `Clc1ccc(Nc2nnc(Cc3ccncc3)c3ccccc23)cc1` [vatalanib] + C/C(O)=C(\C#N)C(=O)Nc1cc(Br)ccc1Br [LFM-A13] (first compound 2 µM, partner dose 2 µM) the value was 92.6%; for `CC(C)C[C@H](NC(=O)[C@H](Cc1ccccc1)NC(=O)c1cnccn1)B(O)O` [Bortezomib] + C[As](C)SC[C@H](NC(=O)CC[C@H](N)C(=O)O)C(=O)NCC(=O)O [Darinaparsin] (first compound 0.001 µM, partner dose 0.4 µM), 113%; for `Cc1cc([N+](=O)[O-])ccc1NS(=O)(=O)c1cc(Cl)ccc1Cl` + O=C(Oc1ccc([N+](=O)[O-])cc1)N1CCC(C(O)(c2ccc3c(c2)OCO3)c2ccc3c(c2)OCO3)CC1 [JZL184] (first compound 1 µM, partner dose 1 µM), 92.8%.
On to `Cc1cc(Nc2cc(N3CCN(C)CC3)nc(Sc3ccc(NC(=O)C4CC4)cc3)n2)n[nH]1` [Tozasertib] + Cn1cc(C2=C(c3cn(C4CCN(Cc5ccccn5)CC4)c4ccccc34)C(=O)NC2=O)c2ccccc21 [Enzastaurin] (first compound 0.006 µM, partner dose 0.8 µM), for which the cell count turned out to be 84.9%.
Turning to `Cc1cc(Nc2cc(N3CCN(C)CC3)nc(Sc3ccc(NC(=O)C4CC4)cc3)n2)n[nH]1` [Tozasertib] + O=C(Oc1ccc([N+](=O)[O-])cc1)N1CCC(C(O)(c2ccc3c(c2)OCO3)c2ccc3c(c2)OCO3)CC1 [JZL184] (first compound 0.006 µM, partner dose 1 µM), the cell count is 88%.
The molecule `Oc1cc(-c2nc(-c3ccccc3)[nH]c2-c2ccncc2)ccc1Cl` + C/C(O)=C(\C#N)C(=O)Nc1cc(Br)ccc1Br [LFM-A13] (first compound 0.2 µM, partner dose 2 µM) yielded a cell count of 71.8%.
With `O=C(O)C(=O)Nc1sc2c(c1C(=O)O)CCNC2` + O=C(Oc1ccc([N+](=O)[O-])cc1)N1CCC(C(O)(c2ccc3c(c2)OCO3)c2ccc3c(c2)OCO3)CC1 [JZL184] (first compound 1.66667 µM, partner dose 1 µM), the cell count was determined as 89.8%.
Regarding `C#Cc1cccc(Nc2ncnc3cc(OCCOC)c(OCCOC)cc23)c1` [erlotinib] + C[As](C)SC[C@H](NC(=O)CC[C@H](N)C(=O)O)C(=O)NCC(=O)O [Darinaparsin] (first compound 0.8 µM, partner dose 0.4 µM), the cell count turned out to be 90.7%.
